The list shows a part of the results.
What was measured:
Test in all cases: glycan array binding signal (z-score within array); higher = stronger binding
Conditions in all cases: glycan notation: IUPAC condensed, linker removed
GalNAc(b1-3)GalNAc = biological target: GalNAc(b1-3)GalNAc
How it was run: (§1)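 The Consortium for Functional Glycomics database supplied 3228 glycan arrays, of which those lacking an available protein sequence were dropped. The binding signal, a within-array Z-score, was averaged across arrays of the same protein sequence and across linkers. Negative scores can be read as non-binding.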

GalNAc(b1-4)GlcNAc = biological target: GalNAc(b1-4)GlcNAc
How it was run: as §1

Glc(a1-4)Glc = biological target: Glc(a1-4)Glc
How it was run: as §1

Glc(a1-6)Glc(a1-6)Glc = biological target: Glc(a1-6)Glc(a1-6)Glc
How it was run: as §1

Glc(b1-4)Glc = biological target: Glc(b1-4)Glc
How it was run: as §1

Glc(b1-6)Glc = biological target: Glc(b1-6)Glc
How it was run: as §1

GlcA(b1-3)Gal = biological target: GlcA(b1-3)Gal
How it was run: as §1

GlcA(b1-3)GlcNAc = biological target: GlcA(b1-3)GlcNAc
How it was run: as §1

GlcA(b1-6)Gal = biological target: GlcA(b1-6)Gal
How it was run: as §1

[1] = biological target: GlcNAc(a1-3)Gal(b1-4)GlcNAc
How it was run: as §1

[2] = biological target: GlcNAc(a1-6)Gal(b1-4)GlcNAc
How it was run: as §1

[3] = biological target: GlcNAc(b1-2)Gal(b1-3)GalNAc
How it was run: as §1

[4] = biological target: GlcNAc(b1-2)Man(a1-3)[GlcNAc(b1-2)Man(a1-6)]Man(b1-4)GlcNAc(b1-4)GlcNAc
How it was run: as §1

GlcNAc(b1-3)Gal = biological target: GlcNAc(b1-3)Gal
How it was run: as §1

[5] = biological target: GlcNAc(b1-3)Gal(b1-3)GalNAc
How it was run: as §1

GlcNAc(b1-3)Gal(b1-4)Glc = biological target: GlcNAc(b1-3)Gal(b1-4)Glc
How it was run: as §1

[6] = biological target: GlcNAc(b1-3)Gal(b1-4)GlcNAc
How it was run: as §1

[7] = biological target: GlcNAc(b1-3)Gal(b1-4)GlcNAc(b1-3)Gal(b1-4)GlcNAc
How it was run: as §1

GlcNAc(b1-3)GalNAc = biological target: GlcNAc(b1-3)GalNAc
How it was run: as §1

GlcNAc(b1-3)Man = biological target: GlcNAc(b1-3)Man
How it was run: as §1

[8] = biological target: GlcNAc(b1-3)[GlcNAc(b1-4)][GlcNAc(b1-6)]GlcNAc
How it was run: as §1

[9] = biological target: GlcNAc(b1-3)[GlcNAc(b1-6)]Gal(b1-4)GlcNAc
How it was run: as §1

[10] = biological target: GlcNAc(b1-3)[GlcNAc(b1-6)]GalNAc
How it was run: as §1

[11] = biological target: GlcNAc(b1-4)Gal(b1-4)GlcNAc
How it was run: as §1

GlcNAc(b1-4)GlcNAc = biological target: GlcNAc(b1-4)GlcNAc
How it was run: as §1

[12] = biological target: GlcNAc(b1-4)GlcNAc(b1-4)GlcNAc
How it was run: as §1

[13] = biological target: GlcNAc(b1-4)GlcNAc(b1-4)GlcNAc(b1-4)GlcNAc(b1-4)GlcNAc
How it was run: as §1

[14] = biological target: GlcNAc(b1-4)GlcNAc(b1-4)GlcNAc(b1-4)GlcNAc(b1-4)GlcNAc(b1-4)GlcNAc
How it was run: as §1

[15] = biological target: GlcNAc(b1-4)[GlcNAc(b1-6)]GalNAc
How it was run: as §1

[16] = biological target: GlcNAc(b1-6)Gal(b1-4)GlcNAc
How it was run: as §1

GlcNAc(b1-6)GalNAc = biological target: GlcNAc(b1-6)GalNAc
How it was run: as §1

GlcNAc3Prop(b1-4)GlcNAc = biological target: GlcNAc3Prop(b1-4)GlcNAc
How it was run: as §1

Kdn(a2-3)Gal(b1-3)GlcNAc = biological target: Kdn(a2-3)Gal(b1-3)GlcNAc
How it was run: as §1

Kdn(a2-3)Gal(b1-4)GlcNAc = biological target: Kdn(a2-3)Gal(b1-4)GlcNAc
How it was run: as §1

[17] = biological target: Man(a1-2)Man(a1-2)Man(a1-3)Man
How it was run: as §1

[18] = biological target: Man(a1-2)Man(a1-2)Man(a1-6)[Man(a1-3)]Man
How it was run: as §1

Man(a1-2)Man(a1-3)Man = biological target: Man(a1-2)Man(a1-3)Man
How it was run: as §1

[19] = biological target: Man(a1-2)Man(a1-3)[Man(a1-2)Man(a1-6)]Man
How it was run: as §1

[20] = biological target: Man(a1-2)Man(a1-3)[Man(a1-2)Man(a1-6)]Man(a1-6)[Man(a1-2)Man(a1-2)Man(a1-3)]Man
How it was run: as §1

[21] = biological target: Man(a1-2)Man(a1-3)[Man(a1-2)Man(a1-6)]Man(a1-6)[Man(a1-2)Man(a1-2)Man(a1-3)]Man(b1-4)GlcNAc(b1-4)GlcNAc
How it was run: as §1

[22] = biological target: Man(a1-2)Man(a1-3)[Man(a1-6)]Man(a1-6)[Man(a1-2)Man(a1-3)]Man(b1-4)GlcNAc(b1-4)GlcNAc
How it was run: as §1

[23] = biological target: Man(a1-2)Man(a1-6)[Man(a1-3)]Man(a1-6)[Man(a1-2)Man(a1-2)Man(a1-3)]Man
How it was run: as §1

[24] = biological target: Man(a1-2)Man(a1-6)[Man(a1-3)]Man(a1-6)[Man(a1-2)Man(a1-2)Man(a1-3)]Man(b1-4)GlcNAc(b1-4)GlcNAc
How it was run: as §1

Man(a1-3)[Man(a1-6)]Man = biological target: Man(a1-3)[Man(a1-6)]Man
How it was run: as §1

[25] = biological target: Man(a1-3)[Man(a1-6)]Man(a1-6)[Man(a1-2)Man(a1-3)]Man(b1-4)GlcNAc(b1-4)GlcNAc
How it was run: as §1

B1: Glycodelin A (Homo sapiens), P09466 (protein)
chain: MLCLLLTLGVALVCGVPAMDIPQTKQDLELPKLAGTWHSMAMATNNISLMATLKAPLRVHITSLLPTPEDNLEIVLHRWENNSCVEKKVLGEKTENPKKFKINYTVANEATLLDTDYDNFLFLCLQDTTTPIQSMMCQYLARVLVEDDEIMQGFIRAFRPLPRHLWYLLDLKQMEEPCRF
With B1 the “glycan array binding signal (z-score)” value (GalNAc(b1-3)GalNAc) was -0.44, the “glycan array binding signal (z-score)” value (GalNAc(b1-4)GlcNAc) was 2.06 and the “glycan array binding signal (z-score)” value (Glc(a1-4)Glc) was -0.422. For the same binder, the “glycan array binding signal (z-score)” value (Glc(a1-6)Glc(a1-6)Glc) was -0.44, the “glycan array binding signal (z-score)” value (Glc(b1-4)Glc) was -0.39 and the “glycan array binding signal (z-score)” value (Glc(b1-6)Glc) was 1.92. For the same binder, the “glycan array binding signal (z-score)” value (GlcA(b1-3)Gal) was -0.368, the “glycan array binding signal (z-score)” value (GlcA(b1-3)GlcNAc) was -0.029 and the “glycan array binding signal (z-score)” value (GlcA(b1-6)Gal) was -0.4. The “glycan array binding signal (z-score)” value [1] was -0.443, the “glycan array binding signal (z-score)” value [2] was -0.3 and the “glycan array binding signal (z-score)” value [3] was -0.483. The “glycan array binding signal (z-score)” value [4] was 0.842, the “glycan array binding signal (z-score)” value (GlcNAc(b1-3)Gal) was -0.37 and the “glycan array binding signal (z-score)” value [5] was -0.055. The “glycan array binding signal (z-score)” value (GlcNAc(b1-3)Gal(b1-4)Glc) was -0.381, the “glycan array binding signal (z-score)” value [6] was -0.452 and the “glycan array binding signal (z-score)” value [7] was -0.46. For the same binder, the “glycan array binding signal (z-score)” value (GlcNAc(b1-3)GalNAc) was -0.36, the “glycan array binding signal (z-score)” value (GlcNAc(b1-3)Man) was -0.183 and the “glycan array binding signal (z-score)” value [8] was -0.431. For the same binder, the “glycan array binding signal (z-score)” value [9] was -0.403, the “glycan array binding signal (z-score)” value [10] was -0.397 and the “glycan array binding signal (z-score)” value [11] was -0.344. The “glycan array binding signal (z-score)” value (GlcNAc(b1-4)GlcNAc) was -0.002, the “glycan array binding signal (z-score)” value [12] was -0.487 and the “glycan array binding signal (z-score)” value [13] was -0.468. For the same binder, the “glycan array binding signal (z-score)” value [14] was -0.398, the “glycan array binding signal (z-score)” value [15] was -0.434 and the “glycan array binding signal (z-score)” value [16] was -0.5. The “glycan array binding signal (z-score)” value (GlcNAc(b1-6)GalNAc) was -0.36, the “glycan array binding signal (z-score)” value (GlcNAc3Prop(b1-4)GlcNAc) was -0.448 and the “glycan array binding signal (z-score)” value (Kdn(a2-3)Gal(b1-3)GlcNAc) was -0.416. The “glycan array binding signal (z-score)” value (Kdn(a2-3)Gal(b1-4)GlcNAc) was -0.433, the “glycan array binding signal (z-score)” value [17] was -0.466 and the “glycan array binding signal (z-score)” value [18] was -0.508. The “glycan array binding signal (z-score)” value (Man(a1-2)Man(a1-3)Man) was -0.309, the “glycan array binding signal (z-score)” value [19] was -0.43 and the “glycan array binding signal (z-score)” value [20] was -0.279. For the same binder, the “glycan array binding signal (z-score)” value [21] was 2.59, the “glycan array binding signal (z-score)” value [22] was -0.39 and the “glycan array binding signal (z-score)” value [23] was -0.427. For the same binder, the “glycan array binding signal (z-score)” value [24] was 2.2, the “glycan array binding signal (z-score)” value (Man(a1-3)[Man(a1-6)]Man) was -0.311 and the “glycan array binding signal (z-score)” value [25] was -0.274.

From the supplement of paper PMC8728848
